Results published in US20220220204A1 (NANJING GENSCRIPT BIOTECH, published 2022).
Each block holds one binder with its values, some of them ahead of it.

Assays:
[1] = molecular target: human PD-L1 (PD-L1 aAPC/CHO-K1 cells) (human, UniProt Q9NZQ7); test: cell-based or functional assay
[2] = molecular target: T1, human LAG-3 (LAG-3 effector Jurkat T cells) (human, UniProt P18627 23-525); test: cell-based or functional assay
T1 sequence (looked up): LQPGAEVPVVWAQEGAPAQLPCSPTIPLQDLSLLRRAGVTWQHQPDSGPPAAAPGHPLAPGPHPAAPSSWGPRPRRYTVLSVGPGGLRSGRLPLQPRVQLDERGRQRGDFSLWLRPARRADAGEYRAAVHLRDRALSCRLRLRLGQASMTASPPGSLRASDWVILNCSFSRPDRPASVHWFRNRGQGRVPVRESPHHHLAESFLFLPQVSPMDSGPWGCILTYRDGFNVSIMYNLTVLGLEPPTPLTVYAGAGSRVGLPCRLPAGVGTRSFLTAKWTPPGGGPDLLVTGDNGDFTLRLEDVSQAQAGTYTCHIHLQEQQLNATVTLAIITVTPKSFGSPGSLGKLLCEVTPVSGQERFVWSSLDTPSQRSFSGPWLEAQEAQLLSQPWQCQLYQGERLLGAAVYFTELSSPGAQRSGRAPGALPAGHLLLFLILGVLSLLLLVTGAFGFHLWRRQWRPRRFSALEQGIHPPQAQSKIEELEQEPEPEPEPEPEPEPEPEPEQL

UniProt Q9NZQ7, sequence (Q9NZQ7 19-290): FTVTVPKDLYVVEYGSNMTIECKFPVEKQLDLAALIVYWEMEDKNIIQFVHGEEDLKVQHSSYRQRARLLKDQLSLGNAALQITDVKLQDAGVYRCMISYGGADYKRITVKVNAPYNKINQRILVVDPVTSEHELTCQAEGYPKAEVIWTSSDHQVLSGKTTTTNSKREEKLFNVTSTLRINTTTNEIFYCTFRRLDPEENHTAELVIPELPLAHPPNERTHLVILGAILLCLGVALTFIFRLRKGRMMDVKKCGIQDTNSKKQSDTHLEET

Bottom (PD-1/PD-L1 blockade bioassay) [1]: 26300 | Log EC50 (PD-1/PD-L1 blockade bioassay) [1]: -0.245 | Top (PD-1/PD-L1 blockade bioassay) [1]: 116000 | Bottom (LAG-3 blockade bioassay) [2]: 328000 | Log EC50 (LAG-3 blockade bioassay) [2]: 1.15 | Top (LAG-3 blockade bioassay) [2]: 754000
B2: mPDL1LCv1-E-sLAG3-HCv5 (bispecific antibody, human IgG1, kappa)
light: DIQMTQSPSSLSASVGDRVTITCRASQDVSTAVDWYQQKPGKAPKLLIYSASYRYTGVPDRFSGSGSGTDFTFTISSLQPEDIATYYCQQHYSIPFTFGQGTKLEIKRTVAAPSVFIFPPSDEQLKSGTASVVCLLNNFYPREAKVQWKVDNALQSGNSQESVTEQDSKDSTYSLSSTLTLSKADYEKHKVYACEVTHQGLSSPVTKSFNRGECEPKSSDKTHTSPPSPEVQLVESGGGLVQPGGSLRLSCAASGYTVSSYCMGWFRQAPGKGREGVSAIDSDGSVSYADSVKGRFTISKDNSKNTLYLQMNSLRAEDTAVYFCAADLCWVDQDQGEYNTWGQGTLVTVSS
heavy: EVQLVQSGAEVKKPGASVKVSCKASGYIFTGYGITWVRQAPGQGLEWMGEIFPRRVQTYYSEKFKGRVTMTADTSTSTAYMELRSLRSDDTAVYYCARDYDPYFALDYWGQGTTVTVSSASTKGPSVFPLAPSSKSTSGGTAALGCLVKDYFPEPVTVSWNSGALTSGVHTFPAVLQSSGLYSLSSVVTVPSSSLGTQTYICNVNHKPSNTKVDKKV[letters of human IgG1 Fc with changes not shown]

Bottom (PD-1/PD-L1 blockade bioassay) [1]: 28200 | Log EC50 (PD-1/PD-L1 blockade bioassay) [1]: -0.0241 | Top (PD-1/PD-L1 blockade bioassay) [1]: 112000 | Bottom (LAG-3 blockade bioassay) [2]: 359000 | Log EC50 (LAG-3 blockade bioassay) [2]: 0.989 | Top (LAG-3 blockade bioassay) [2]: 752000
B3: sLAG3-E-mPDL1HCv1 (bispecific antibody, human IgG1, kappa)
heavy: EVQLVESGGGLVQPGGSLRLSCAASGYTVSSYCMGWFRQAPGKGREGVSAIDSDGSVSYADSVKGRFTISKDNSKNTLYLQMNSLRAEDTAVYFCAADLCWVDQDQGEYNTWGQGTLVTVSSEPKSSDKTHTSPPSPEVQLVQSGAEVKKPGASVKVSCKASGYIFTGYGITWVRQAPGQGLEWMGEIFPRRVQTYYSEKFKGRVTMTTDTSTSTAYMELRSLRSDDTAVYYCARDYDPYFALDYWGQGTTVTVSSASTKGPSVFPLAPSSKSTSGGTAALGCLVKDYFPEPVTVSWNSGALTSGVHTFPAVLQSSGLYSLSSVVTVPSSSLGTQTYICNVNHKPSNTKVDKKV[letters of human IgG1 Fc with changes not shown]
light: DIQMTQSPSSLSASVGDRVTITCRASQDVSTAVDWYQQKPGKAPKLLIYSASYRYTGVPDRFSGSGSGTDFTFTISSLQPEDIATYYCQQHYSIPFTFGQGTKLEIKRTVAAPSVFIFPPSDEQLKSGTASVVCLLNNFYPREAKVQWKVDNALQSGNSQESVTEQDSKDSTYSLSSTLTLSKADYEKHKVYACEVTHQGLSSPVTKSFNRGEC

Second part, the binder before the results:

B1: mPDL1LCv1-E-sLAG3-HCv1 (bispecific antibody, human IgG1, kappa)
light: DIQMTQSPSSLSASVGDRVTITCRASQDVSTAVDWYQQKPGKAPKLLIYSASYRYTGVPDRFSGSGSGTDFTFTISSLQPEDIATYYCQQHYSIPFTFGQGTKLEIKRTVAAPSVFIFPPSDEQLKSGTASVVCLLNNFYPREAKVQWKVDNALQSGNSQESVTEQDSKDSTYSLSSTLTLSKADYEKHKVYACEVTHQGLSSPVTKSFNRGECEPKSSDKTHTSPPSPEVQLVESGGGLVQPGGSLRLSCAASGYTVSSYCMGWFRQAPGKGREGVSAIDSDGSVSYADSVKGRFTISKDNSKNTLYLQMNSLRAEDTAVYFCAADLCWVDQDQGEYNTWGQGTLVTVSS
heavy: EVQLVQSGAEVKKPGASVKVSCKASGYIFTGYGITWVRQAPGQGLEWMGEIFPRRVQTYYSEKFKGRVTMTTDTSTSTAYMELRSLRSDDTAVYYCARDYDPYFALDYWGQGTTVTVSSASTKGPSVFPLAPSSKSTSGGTAALGCLVKDYFPEPVTVSWNSGALTSGVHTFPAVLQSSGLYSLSSVVTVPSSSLGTQTYICNVNHKPSNTKVDKKV[letters of human IgG1 Fc with changes not shown]
Bottom (PD-1/PD-L1 blockade bioassay) [1]: 30200 | Log EC50 (PD-1/PD-L1 blockade bioassay) [1]: 0.141 | Top (PD-1/PD-L1 blockade bioassay) [1]: 116000 | Bottom (LAG-3 blockade bioassay) [2]: 339000 | Log EC50 (LAG-3 blockade bioassay) [2]: 1.75 | Top (LAG-3 blockade bioassay) [2]: 908000

B4: mPDL1HCv1-E-sLAG3 (bispecific antibody, human IgG1, kappa)
heavy: EVQLVQSGAEVKKPGASVKVSCKASGYIFTGYGITWVRQAPGQGLEWMGEIFPRRVQTYYSEKFKGRVTMTTDTSTSTAYMELRSLRSDDTAVYYCARDYDPYFALDYWGQGTTVTVSSASTKGPSVFPLAPSSKSTSGGTAALGCLVKDYFPEPVTVSWNSGALTSGVHTFPAVLQSSGLYSLSSVVTVPSSSLGTQTYICNVNHKPSNTKVDKKV[letters of human IgG1 Fc with changes not shown]EPKSSDKTHTSPPSPEVQLVESGGGLVQPGGSLRLSCAASGYTVSSYCMGWFRQAPGKGREGVSAIDSDGSVSYADSVKGRFTISKDNSKNTLYLQMNSLRAEDTAVYFCAADLCWVDQDQGEYNTWGQGTLVTVSS
light: DIQMTQSPSSLSASVGDRVTITCRASQDVSTAVDWYQQKPGKAPKLLIYSASYRYTGVPDRFSGSGSGTDFTFTISSLQPEDIATYYCQQHYSIPFTFGQGTKLEIKRTVAAPSVFIFPPSDEQLKSGTASVVCLLNNFYPREAKVQWKVDNALQSGNSQESVTEQDSKDSTYSLSSTLTLSKADYEKHKVYACEVTHQGLSSPVTKSFNRGEC
Bottom (PD-1/PD-L1 blockade bioassay) [1]: 28400 | Log EC50 (PD-1/PD-L1 blockade bioassay) [1]: -0.483 | Top (PD-1/PD-L1 blockade bioassay) [1]: 109000 | Bottom (LAG-3 blockade bioassay) [2]: 381000 | Log EC50 (LAG-3 blockade bioassay) [2]: 1.14 | Top (LAG-3 blockade bioassay) [2]: 753000
